# Where “and” joins values, the source holds several entries; their conditions need not be identical. Identical values can stand only once. The shares of active, inactive and inconclusive entries below differ from those in the screen. Potencies of inconclusive entries are doubtful fits and often do not repeat. Calls of active or inactive are those of the source. Unless noted, calls follow the shape of the dose curve; as a rule, active = well fitted curve in the direction sought with a large enough effect; inconclusive = small, poorly fitted or top-dose-only effect, or another doubt; inactive = no such curve, though single readings can be large; an effect the other way counts as inactive or inconclusive.
# Legend:
# [1] = qHTS of pediatric cancer cell lines to identify multiple opportunities for drug repurposing: Primary screen for TC32 cells (AID 1347089); also: nearly all actives have a fitted effect of over 60% in size
# Procedure, shortened: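 Luminescent CellTiter-Glo read-out of metabolically active TC32 cells after 48 h compound exposure. Primary: MIPE 11-point, 0.78 nM–46 µM; NPC 8-point, 0.59 nM–46 µM. Confirmatory: 11-point dilutions.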
# [2] = qHTS of pediatric cancer cell lines to identify multiple opportunities for drug repurposing: Confirmatory screen for SJ-GBM2 cells (AID 1347116); also: nearly all actives have a fitted effect of over 60% in size
# Procedure, shortened: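 Viability measured as metabolically active cells via CellTiter-Glo luminescence following 48 hours of compound exposure, 11-point dilutions in confirmatory testing. 500-1,000 cells/well plated 5 hours before dosing; controls were DMSO and 2.3 µM bortezomib.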
# [3] = qHTS of pediatric cancer cell lines to identify multiple opportunities for drug repurposing: Confirmatory screen for Rh18 cells (AID 1347125); also: nearly all actives have a fitted effect of over 55% in size
# Procedure, shortened: (§1)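 Cells (500-1,000/well) rested 5 h, then received compounds for 48 h; metabolically active cells were measured by CellTiter-Glo luminescence. Final concentrations spanned up to 46 µM (MIPE, 11-point) or 0.59 nM-46 µM (NPC, 8-point) in primary screens, 11-point in follow-ups.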
# [4] = Quantitative High-Throughput drug screen in 47 multiple myeloma cell lines against the NCATS MIPE library collection: KMS20_JCRB cell viability assay (AID 1918973); details: CellTiter-Glo ATP, 48 h; viability (% of DMSO): at 45.8 µM (top of the series); also: nearly all actives have a fitted effect of over 45% in size
# Procedure, shortened: (§2)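 Viability readout: CellTiter-Glo luminescence following 5 min room-temperature incubation with reagent. Prior exposure: 48 h, 37C, humidified 5% CO2, 500 cells per well.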
# [5] = Quantitative High-Throughput drug screen in 47 multiple myeloma cell lines against the NCATS MIPE library collection: MMM1_PLB cell viability assay (AID 1918976); also: nearly all actives have a fitted effect of over 35% in size
# Procedure, shortened: (§3)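 ATP-based luminescence (CellTiter-Glo, 5 min RT incubation) quantified surviving cells following two days' treatment with MIPE 4.0 agents at 37 °C, 5% CO2.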
# [6] = Quantitative High-Throughput drug screen in 47 multiple myeloma cell lines against the NCATS MIPE library collection: LP1_DSMZ cell viability assay (AID 1918982); also: nearly all actives have a fitted effect of over 35% in size
# Procedure, shortened: as §3
# [7] = Quantitative High-Throughput drug screen in 47 multiple myeloma cell lines against the NCATS MIPE library collection: OCIMY7_PLB cell viability assay (AID 1918987); details: OCI-MY7 myeloma viability, CellTiter-Glo ATP, 48 h; viability (% of DMSO): at 45.8 µM (top of the series); also: nearly all actives have a fitted effect of over 65% in size
# Procedure, shortened: as §3
# [8] = Quantitative High-Throughput drug screen in 47 multiple myeloma cell lines against the NCATS MIPE library collection: U266_ATCC cell viability assay (AID 1919864); also: nearly all actives have a fitted effect of over 35% in size
# Procedure, shortened: as §3
# [9] = Quantitative High-Throughput drug screen in 47 multiple myeloma cell lines against the NCATS MIPE library collection: OPM2_DSMZ cell viability assay (AID 1919872); also: nearly all actives have a fitted effect of over 30% in size
# Procedure, shortened: as §2
# astro = assay: Drug repurposing screens with cells derived from glioblastoma tumor samples (AID 1345199); details: viability, ATP luminescence, 48 h; series mostly up to 45.9 µM; also: nearly all actives have a fitted effect of over 40% in size
# Procedure, shortened: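 Primary testing used CD133+ neurospheres from four GBM patients, seven concentrations, 48 h exposure and ATP-based viability; confirmation added three slower-growing patient lines.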
# [10] = qHTS of pediatric cancer cell lines to identify multiple opportunities for drug repurposing: Primary screen for A673 cells (AID 1347092); details: A673 Ewing sarcoma viability, CellTiter-Glo ATP luminescence, 48 h; activity change, negative = cytotoxic: at 46 µM (top of the series); also: nearly all actives have a fitted effect of over 45% in size
# Procedure, shortened: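 A673 cells (500-1,000 cells/well in growth media) were pre-incubated 5 h at 37 degrees C, then exposed to compounds for 48 h. Viability was read as CellTiter-Glo luminescence; concentration-response curves came directly from the primary screen.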
# [11] = qHTS of pediatric cancer cell lines to identify multiple opportunities for drug repurposing: Primary screen for NB-EBc1 cells (AID 1347095)
# Procedure, shortened: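 CRCs from 8- or 11-point titrations (lowest final 0.59 nM NPC, 0.78 nM MIPE). Cell viability: CellTiter-Glo after 48 h incubation, 15 min room-temperature development, luminescence imaging.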
# [12] = Quantitative High-Throughput drug screen in 47 multiple myeloma cell lines against the NCATS MIPE library collection: KHM11_PLB cell viability assay (AID 1918962); details: KHM11 myeloma cell viability, CellTiter-Glo ATP luminescence, 48 h; series mostly up to 45.8 µM; also: nearly all actives have a fitted effect of over 35% in size
# Procedure, shortened: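 Approved and investigational drugs from MIPE 4.0 were added by pin tool to 500 cells per well. After 48 hours at 37C, ATP-based CellTiter-Glo luminescence indicated remaining viability.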
# [13] = Quantitative High-Throughput drug screen in 47 multiple myeloma cell lines against the NCATS MIPE library collection: JIM1_ECACC cell viability assay (AID 1918964)
# Procedure, shortened: as §2
# [14] = qHTS of pediatric cancer cell lines to identify multiple opportunities for drug repurposing: Confirmatory screen for OHS-50 cells (AID 1347128);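 also: compound exposure lasted 48 h at 37 degrees C; nearly all actives have a fitted effect of over 55% in size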
# Procedure, shortened: as §1
# [15] = Quantitative High-Throughput drug screen in 47 multiple myeloma cell lines against the NCATS MIPE library collection: L363_DSMZ cell viability assay (AID 1918984); details: L363 myeloma viability, CellTiter-Glo ATP luminescence, 48 h; series mostly up to 45.8 µM; also: nearly all actives have a fitted effect of over 40% in size
# Procedure, shortened: as §3
# [16] = Quantitative High-Throughput drug screen in 47 multiple myeloma cell lines against the NCATS MIPE library collection: UTMC2_PLB cell viability assay (AID 1919868); details: CellTiter-Glo ATP luminescence, 48 h; series mostly up to 45.8 µM; also: nearly all actives have a fitted effect of over 55% in size
# Procedure, shortened: as §3
# [17] = qHTS of pediatric cancer cell lines to identify multiple opportunities for drug repurposing: Primary screen for SK-N-MC cells (AID 1347093); details: SK-N-MC viability, CellTiter-Glo luminescence, 48 h; activity change, negative = cytotoxic: at 46 µM (top of the series)
# Procedure, shortened: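 Metabolically active cells were quantified by ATP-dependent luminescence (CellTiter-Glo, 15 min at room temperature) following 48 h treatment. Cells had been plated at 500-1,000 per well and settled for 5 h beforehand.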
# [18] = A High-Content qHTS Against Drug Library for the Identification of Small Molecules that Inhibit DYT1 Early Onset Primary Dystonia-Associated Cell Pathology (AID 1645839; calls by dose curve)
# Procedure, shortened: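 High-content imaging quantified EGFP-TorsinA mislocalization in HEK293-derived cells inducibly expressing DYT1 mutant torsinA, after 48 h exposure to compound given together with tetracycline induction. Cell count served as a toxicity channel alongside %pathology.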
# [19] = test system: Nanoluciferase (engineered Oplophorus gracilirostris luciferase); assay: Primary Nanoluciferase (NLuc) qHTS assay for identification of artifact compounds. (AID 1845222)
# Procedure, shortened: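 Luminescence from secreted NLuc (filtered, 1:55-diluted S16 cell medium) read 5 min after Nano-Glo substrate; compounds preincubated 15 min, RT. Hill fits of inhibition normalized to DMSO and no-enzyme.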
# Potency is read from the fitted curve at half-maximal effect; tags tell the direction and shape of the fitted curve.
smiles,measurement,setting,value
Cn1c2ccccc2c2c3c(c4c5ccccc5n(CCC#N)c4c21)CNC3=O,Potency,[1],"inconclusive: 2.62 µM [cytotoxic, partial curve, poor fit]"
same,Potency,[2],"inconclusive: 1.17 µM [cytotoxic, full curve, poor fit]"
same,Potency,[3],inactive
same,Potency,[4],active: 1.48 µM
same,Potency,[5],active: 10.5 µM
same,Potency,[6],active: 14.8 µM
same,Potency,[7],active: 0.59 µM
same,Potency,[8],active: 4.69 µM
same,Potency,[9],active: 11.8 µM
COc1cc(-c2ccc(=O)[nH]n2)ccc1OC(F)F,Potency,astro,"inconclusive: 3.98 µM [inhibitor, partial curve]"
O=C(CCCCCCC(=O)Nc1cccnc1)NO,Potency,[10],active: 11.8 µM
same,Potency,[11],active: 4.18 µM
same,Potency,[12],active: 8.33 µM
same,Potency,[13],active: 4.18 µM
same,Potency,[4],active: 3.32 µM
same,Potency,[5],"inconclusive: 8.33 µM [cytotoxic, full curve, poor fit]"
same,Potency,[6],"inconclusive: 3.72 µM [cytotoxic, full curve]"
same,Potency,[7],"inconclusive: 2.09 µM [cytotoxic, full curve, poor fit]"
C[C@H](NCc1ccc2c(c1)nc(NC(=O)c1ccc(-c3cn[nH]c3)s1)n2CCc1ccccc1)C(C)(C)C,Potency,[2],active: 0.928 µM
same,Potency,[3],active: 3.29 µM
same,Potency,[14],active: 1.47 µM
same,Potency,[12],active: 0.59 µM
same,Potency,[13],active: 0.418 µM
same,Potency,[15],active: 0.469 µM
same,Potency,[8],active: 1.48 µM
same,Potency,[16],active: 0.935 µM
same,Potency,[9],active: 2.09 µM
CCNC(=O)Nc1ccc(-c2nc3c(c(N4CCOC[C@H]4C)n2)CCN(C2COC2)C3)cc1,Potency,[1],active: 3.3 µM
same,Potency,[17],active: 0.209 µM
same,Potency,[4],"inconclusive: 0.662 µM [cytotoxic, full curve, poor fit]"
same,Potency,[6],active: 0.0372 µM
same,Potency,[15],active: 0.209 µM
same,Potency,[7],"inconclusive: 3.72 µM [cytotoxic, full curve, poor fit]"
same,Potency,[8],active: 6.62 µM
same,Potency,[16],active: 1.18 µM
same,Potency,[9],active: 1.66 µM
Cc1nc(N)nc(N)c1-c1ccc(Cl)c(Cl)c1,Potency,[1],active: 0.47 µM
same,Potency,[2],"inconclusive: 0.657 µM [cytotoxic, full curve]"
same,Potency,[18],"inconclusive: 10 µM [inhibitor, partial curve]"
Nc1cccc(-c2cc3c(Oc4cccc(O)c4)ncnc3[nH]2)c1,Potency,[1],"inconclusive: 26.2 µM [cytotoxic, single point]"
same,Potency,[13],"inconclusive: 14.8 µM [rising, partial curve, poor fit]"
same,Potency,[5],"inconclusive: 16.6 µM [cytotoxic, partial curve, poor fit]"
same,Potency,[6],"inconclusive: 23.5 µM [cytotoxic, single point]"
same,Potency,[15],inactive
same,Potency,[7],active: 2.64 µM
same,Potency,[8],"inconclusive: 23.5 µM [cytotoxic, single point]"
same,Potency,[16],"inconclusive: 18.7 µM [cytotoxic, partial curve, poor fit]"
same,Potency,[9],"inconclusive: 23.5 µM [cytotoxic, partial curve]"
O=C(CCN1CCC(c2ccccc2)C1)c1ccc2c(c1)OCCO2 (stereo not drawn),Potency,[17],"inconclusive: 33.5 µM [cytotoxic, single point]"
same,Potency,[11],active: 23.7 µM
same,Potency,[18],"inconclusive: 20 µM [inhibitor, single point]"
same,Potency,astro,"inconclusive: 22.4 µM [inhibitor, single point]"
Nc1ccn([C@@H]2C(F)=C(CO)[C@@H](O)[C@H]2O)c(=O)n1,Potency,[19],inactive
CC(C)=CCNc1ncnc2c1ncn2[C@@H]1O[C@H](CO)[C@@H](O)[C@H]1O,Potency,[11],"inconclusive: 23.7 µM [cytotoxic, single point]"
same,Potency,[18],"inconclusive: 7.08 µM [inhibitor, full curve]"
Cc1cnc(-c2ccccc2C(C)C)nc1NCc1ccc(-n2ccnn2)cc1,Potency,[19],"inconclusive: 19 µM [inhibitor, partial curve]"
C/C(=C(/OCCOc1ccc(Cl)cc1)c1ccc(Cl)cc1Cl)n1ccnc1,Potency,[10],"inconclusive: 26.6 µM [cytotoxic, single point]"
same,Potency,[18],"inconclusive: 22.4 µM [inhibitor, single point]"
C[C@H]1[C@@H](OC(=O)CCC(=O)O)O[C@@H]2O[C@@]3(C)CC[C@@H]4[C@H](C)CC[C@@H]1[C@@]24OO3,Potency,[17],active: 0.935 µM
same,Potency,[3],"inconclusive: 20.8 µM [cytotoxic, partial curve, poor fit]"
same,Potency,[14],active: 3.29 µM
same,Potency,[12],active: 3.32 µM
same,Potency,[4],"inconclusive: 13.2 µM [cytotoxic, partial curve, poor fit]"
same,Potency,[5],active: 5.9 µM
same,Potency,[6],"inconclusive: 2.96 µM [cytotoxic, full curve]"
same,Potency,[15],"inconclusive: 0.264 µM [cytotoxic, full curve, poor fit]"
same,Potency,[16],active: 4.69 µM
same,Potency,[9],"inconclusive: 11.8 µM [cytotoxic, partial curve]"
CS(=O)(=O)c1ccc(-c2nnc(/C=C/c3nnc(-c4ccc(C#N)cc4)o3)n2-c2ccccc2Cl)nc1,Potency,[19],active: 12 µM
O=C(N/N=C/c1ccccc1O)c1ccncc1,Potency,[1],active: 23.6 µM
same,Potency,[10],"inconclusive: 21.1 µM [cytotoxic, single point]"
same,Potency,[17],"inconclusive: 2.99 µM [cytotoxic, full curve, poor fit]"
C=C[C@@]1(C)CC(=O)[C@]2(O)[C@@]3(C)[C@@H](O)CCC(C)(C)[C@@H]3[C@H](O)[C@H](OC(C)=O)[C@@]2(C)O1,Potency,[2],"inconclusive: 29.3 µM [cytotoxic, single point]"
same,Potency,[3],"inconclusive: 36.9 µM [cytotoxic, partial curve, poor fit]"
same,Potency,[14],"inconclusive: 36.9 µM [cytotoxic, single point]"
same,Potency,astro,"inconclusive: 17.8 µM [inhibitor, partial curve]"
CCCCOc1ccc(CC(=O)NO)cc1,Potency,[17],"inconclusive: 21.1 µM [cytotoxic, partial curve, poor fit] and active: 7.43 µM"
same,Potency,[11],"inconclusive: 21.1 µM [cytotoxic, single point]"
same,Potency,[2],inactive
same,Potency,[3],"inconclusive: 16.5 µM [cytotoxic, partial curve]"
same,Potency,[14],inactive
same,Potency,[18],"inconclusive: 35.5 µM [inhibitor, single point]"
same,Potency,[12],"inconclusive: 6.62 µM [cytotoxic, partial curve, poor fit]"
same,Potency,[13],"inconclusive: 16.6 µM [cytotoxic, partial curve, poor fit]"
same,Potency,[4],active: 16.6 µM
same,Potency,[6],"inconclusive: 16.6 µM [cytotoxic, partial curve, poor fit]"
same,Potency,[15],active: 18.7 µM
same,Potency,[7],active: 16.6 µM
same,Potency,[8],active: 8.33 µM
same,Potency,[16],"inconclusive: 8.33 µM [cytotoxic, full curve, poor fit]"
same,Potency,[9],"inconclusive: 0.059 µM [cytotoxic, full curve, poor fit]"
CN(C/C=C/c1ccccc1)Cc1cccc2ccccc12,Potency,[17],"inconclusive: 33.5 µM [cytotoxic, single point]"
same,Potency,[11],"inconclusive: 29.9 µM [cytotoxic, single point]"

# Source: PubChem BioAssay (NCATS)
